Measured values published in PMC4336329 (PLoS ONE, 2015).
In all, about 310,000 compounds went through this assay and about 14,000 (4.5%) showed an effect of 50% or more. Effects have a minus sign here. This is one part of the list.

Each compound was assayed against human ether-à-go-go-related gene (hERG) potassium channel (human, UniProt Q12809) (assay: primary screen, population patch clamp on CHO cells stably expressing hERG).
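Further: peak tail current of the secondary pulse compared with the same well before compound.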

human ether-à-go-go-related gene (hERG) potassium channel, sequence (Q12809 whole entry, looked up): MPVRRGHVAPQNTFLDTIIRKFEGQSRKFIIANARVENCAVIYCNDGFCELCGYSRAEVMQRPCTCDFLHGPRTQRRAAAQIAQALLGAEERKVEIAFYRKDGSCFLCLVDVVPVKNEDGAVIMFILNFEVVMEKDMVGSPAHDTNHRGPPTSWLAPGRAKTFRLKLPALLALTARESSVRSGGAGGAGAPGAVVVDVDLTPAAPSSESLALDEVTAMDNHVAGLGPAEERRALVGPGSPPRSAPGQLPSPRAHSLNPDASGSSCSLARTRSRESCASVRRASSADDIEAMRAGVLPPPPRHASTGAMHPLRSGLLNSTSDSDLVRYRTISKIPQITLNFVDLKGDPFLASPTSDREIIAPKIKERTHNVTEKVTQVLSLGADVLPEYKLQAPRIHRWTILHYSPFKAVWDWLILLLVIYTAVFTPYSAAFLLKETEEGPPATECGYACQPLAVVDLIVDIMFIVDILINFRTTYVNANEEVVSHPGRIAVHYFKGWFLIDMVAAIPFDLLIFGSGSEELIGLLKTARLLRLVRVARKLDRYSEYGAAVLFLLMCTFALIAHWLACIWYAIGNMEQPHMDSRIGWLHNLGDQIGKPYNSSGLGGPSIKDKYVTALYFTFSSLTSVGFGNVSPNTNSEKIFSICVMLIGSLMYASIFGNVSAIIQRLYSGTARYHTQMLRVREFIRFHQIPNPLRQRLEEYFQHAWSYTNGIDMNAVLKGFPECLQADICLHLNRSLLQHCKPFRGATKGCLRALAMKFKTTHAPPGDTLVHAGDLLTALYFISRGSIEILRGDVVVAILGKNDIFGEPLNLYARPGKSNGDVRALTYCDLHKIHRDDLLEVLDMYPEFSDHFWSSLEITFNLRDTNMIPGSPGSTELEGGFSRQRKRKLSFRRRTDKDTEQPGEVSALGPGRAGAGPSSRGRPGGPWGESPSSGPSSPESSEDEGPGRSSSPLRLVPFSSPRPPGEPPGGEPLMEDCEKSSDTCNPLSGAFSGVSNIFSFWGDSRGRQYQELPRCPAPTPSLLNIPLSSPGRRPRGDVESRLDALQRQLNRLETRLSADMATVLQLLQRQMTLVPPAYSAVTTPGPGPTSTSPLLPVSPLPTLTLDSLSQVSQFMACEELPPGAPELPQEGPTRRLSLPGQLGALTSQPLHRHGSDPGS

| Structure (SMILES) | hERG current change (%, negative = inhibition) at 10uM |
| --- | --- |
| O=C(O)[C@H](Cc1ccccc1)NC(=O)N1CCN(c2ccccc2)CC1 | -0.139% |
| CCN(CC)C(=O)CSc1nc2ccccc2c(=O)n1OC(C)C | -11.3% |
| Cc1cc(C)cc(OCc2ccc(C(=O)NC3CCOC3=O)o2)c1 (centres unmarked) | 15.9% |
| N#Cc1c(N)sc2c1CCN(CCc1ccccc1)C2 | -50.5% |
| CC1CSc2nnc(CCc3ccccc3)n21 (centres unmarked) | 8.26% |
| O=C(CSc1ncccn1)N1CCN(C(c2ccccc2)c2ccccc2)CC1 | -18.4% |
| Cc1noc(C)c1CSc1nnc(C)c(=O)[nH]1 | 7.14% |
| Fc1cccc(CSc2ccc3nnc(-c4cccnc4)n3n2)c1 | -69% |
| Cc1c(Br)c(C(F)(F)F)nn1CC(=O)NCc1ccco1 | 16.3% |
| Cc1ccc(O)c(C2=NNC(O)(C(F)(F)F)C2)c1 (centres unmarked) | 3.46% |
| CC1CN(Cc2nc3c(c(=O)n(C)c(=O)n3C)n2CCCO)CC(C)O1 (centres unmarked) | 2.33% |
| Cc1cc(C(F)(F)F)nn1CC(=O)N1CCCCC1C (centres unmarked) | 2.16% |
| CN(C)C(=O)CN(c1ccc2c(c1)OCO2)S(C)(=O)=O | 15.5% |
| CC(C)C(OC(=O)c1cccs1)C(=O)NCCc1ccccc1 (centres unmarked) | 1.64% |
| CCOC(=O)C1=C(CC)Nc2ccccc2N=C1NC(=O)c1cc(S(=O)(=O)N(C)C)ccc1Cl | 19.1% |
| CCOC(=O)Cc1c(C)nc2c(-c3ccc(OC)cc3)c(C)nn2c1C | -7% |
| Cc1cc(C)c2nc(-c3ccccn3)cc(C(=O)NCc3cc(C)n(C)n3)c2c1 | -28.9% |
| Cc1ccc2nc(Nc3nc(-c4ccccc4)cc(=O)[nH]3)nc(C)c2c1 | 15% |
| CCN1CCN(C(=O)/C=C/c2c(F)cccc2Cl)CC1 | -11.4% |
| O=C(O)c1sccc1S(=O)(=O)N1CCN(c2ccc(C(F)(F)F)cn2)CC1 | 9.39% |

| Structure (SMILES) | hERG current change (%, negative = inhibition) at 10uM |
| --- | --- |
| CN1CCN(C(=O)/C=C/c2ccc3c(c2)OCO3)CC1 | 0.246% |
| Cc1nn(Cc2cccc(F)c2)c(C)c1NC(=O)c1c(Cl)cnn1C | 6.8% |
| Cn1c(SCC(=O)c2ccc(F)cc2)nnc1-c1cccnc1 | 8.87% |
| O=C(N/N=C/c1ccccc1F)c1ccc(COc2ccccc2Cl)o1 | -10.9% |
| O=C(OCc1c(F)cccc1Cl)c1cc([N+](=O)[O-])ccc1N1CCOCC1 | 3.43% |
| Cc1cc(N(C)C)c(C#N)c(NCc2ccccc2)n1 | -1.98% |
| COC(=O)CCCn1nc(NC(=O)COc2ccc(F)cc2)cc1C | -5.47% |
| O=C(NC1CCCc2ccccc21)c1cn2ccccc2n1 (centres unmarked) | -25.5% |
| CCNC(=O)C(=O)NCC1OCCCN1S(=O)(=O)c1cccs1 (centres unmarked) | 1.94% |
| COC(=O)Cn1ccc2cc(S(=O)(=O)N3CCCCCC3)ccc21 | 8.08% |
| COc1ccc(S(=O)(=O)/C(C#N)=C/Nc2ccccc2F)cc1 | -24.8% |
| COc1cc(OC)c(-n2cc(-c3ccc(Cl)cc3)[nH]c2=O)cc1Cl | 1.01% |
| CCCCCC(=O)N1CCN(S(=O)(=O)c2ccc3c(c2)OCCCO3)CC1 | -18.7% |
| Cc1nnc(SCCn2c(N3CCC(C)CC3)nc3c2c(=O)n(C)c(=O)n3C)s1 | -12.1% |
| CCC1CCCCN1C(=O)CSC1=NN2CCCC(=O)N=C2S1 (centres unmarked) | 18.2% |
| CCOc1ccc2nc(Cl)c(C3CC(c4ccco4)=NN3S(C)(=O)=O)cc2c1 (centres unmarked) | -41.1% |
| CC(=O)c1cccc(NC(=O)C2CCN(C(=O)c3cccs3)CC2)c1 | -23.5% |
| Cc1ccc(S(=O)(=O)NCCNC(=O)CN2CCOCC2)cc1 | 11.7% |
| O=C1c2ccccc2-c2onc3ccc(NCc4ccco4)c1c23 | 13.5% |
| O=c1oc2ccccc2c2c1SC(C(F)(F)F)C2 (centres unmarked) | -1.76% |

| Structure (SMILES) | hERG current change (%, negative = inhibition) at 10uM |
| --- | --- |
| O=[N+]([O-])c1c(Nc2ccc(Br)cc2)ccc2nonc12 | 10.2% |
| O=C(NCc1ccccc1)c1cnsn1 | 4.56% |
| Cc1cccc2sc(N(CCCN(C)C)C(=O)c3ccc4ncsc4c3)nc12 | -45% |
| CC(=O)Nc1cccc(/C(C)=N/NC(=O)c2ccc(O)cc2)c1 | -9.16% |
| Cc1cc(Cl)ccc1NC(=O)CN1CCC(C(O)(c2ccccc2)c2ccccc2)CC1 | 5.73% |
| COc1ccc([N+](=O)[O-])cc1NC1C2CC3CC(C2)CC1C3 (centres unmarked) | 18.4% |
| O=C(NCCc1ccccc1)C1CCN(C(=O)NCc2ccccc2)CC1 | 17.1% |
| Cc1ccc(NCc2ccc(O)c3ncccc23)cc1C | 19.9% |
| Cc1ccc(C(C(=O)NC(C)(C)C)N(C(=O)CCC(=O)Nc2ccccn2)c2ccccc2F)cc1 (centres unmarked) | -48.4% |
| Cc1c(OCC(=O)NCc2ccccn2)ccc2c(-c3ccccc3)cc(=O)oc12 | -7.1% |
| N#Cc1ccc(N2CCOCC2)c([N+](=O)[O-])c1 | -21.7% |
| Cc1cccc2c(C(=O)n3cccn3)cc(-c3ccccc3Cl)nc12 | 8.89% |
| O=C(O)c1nn(-c2ccccc2-c2n[nH]c(=O)[nH]c2=O)c(=O)[nH]c1=O | 7.77% |
| Cc1cccc(NC(=S)N/C(=N/S(=O)(=O)c2ccccc2)c2ccccc2)c1 | 13% |
| COc1ccccc1/C=N/Nc1nccnc1Cl | -11.5% |
| COc1ccc(NC(=O)CS(=O)(=O)c2ccccc2Cl)cc1 | 21.2% |
| CCOc1ccc(Cl)cc1CSc1n[nH]c(C)n1 | 13.7% |
| N#Cc1cc2cc3c(cc2nc1SCC(=O)OC1CCCCC1)OCO3 | 13.5% |
| CC(=O)C1=C(C)OC(N)=C(C#N)C1c1ccncc1 (centres unmarked) | 4.17% |
